Measurements taken from a collection of fitness landscapes (doi:10.1126/science.1257360).
The other results are listed elsewhere or left out.

B1: PhoQ; a variant is named by its letters at X, in order, P23837 (parent)
chain: MKKLLRLFFPLSLRVRFLLATAAVVLVLSLAYGMVALIGYSVSFDKTTFRLLRGESNLFYTLAKWENNKLHVELPENIDKQSPTMTLIYDENGQLLWAQRDVPWLMKMIQPDWLKSNGFHEIEADVNDTSLLLSGDHSIQQQLQEVREDDDDAEMTHSVAVNVYPATSRMPKLTIVVVDTIPVELKSSYMVWSWFIYVLSANLLLVIPLLWVAAWWSLRPIEALAKEVRELEEHNRELLNPATTRELTSLVRNLNRLLKSERERYDKYRTTLTDLTHSLKTPLXXLQXXLRSLRSEKMSVSDAEPVMLEQISRISQQIGYYLHRASMRGGTLLSRELHPVAPLLDNLTSALNKVYQRKGVNISLDISPEISFVGEQNDFVEVMGNVLDNACKYCLEFVEISARQTDEHLYIVVEDDGPGIPLSKREVIFDRGQRVDTLRPGQGVGLAVAREITEQYEGKIVAGESMLGGARMEVIFGRQHSAPKDE

Variants of: B1
Assay: enrichment ratio after two sorts for PhoP signalling (ratio (wild type AVST 3.29)); higher = more functional
Details: with PhoP (E. coli)

Variant | enrichment ratio
EIII | ≤ 0.25
RVMF | ≤ 0.25
TDTF | ≤ 0.25
NILK | ≤ 0.25
RECH | ≤ 0.25
WMVY | ≤ 0.25
MCGR | ≤ 0.25
ATCC | 1.99
WKPH | ≤ 0.25
WNGT | ≤ 0.25
IRQS | ≤ 0.25
FKTG | ≤ 0.25
ISHD | ≤ 0.25
WNKS | ≤ 0.25
RCDQ | ≤ 0.25
AMCD | ≤ 0.25
IMQL | ≤ 0.25
VSKI | ≤ 0.25
ICAM | 17.4
KHCM | ≤ 0.25
QPRH | ≤ 0.25
YTIH | ≤ 0.25
TNAE | ≤ 0.25
IWKV | ≤ 0.25
LICC | ≤ 0.25
NGGK | ≤ 0.25

Variant | enrichment ratio
THSS | 8.94
PNFP | ≤ 0.25
FFKQ | ≤ 0.25
NEGC | ≤ 0.25
YNCE | ≤ 0.25
VMQW | ≤ 0.25
WMIG | ≤ 0.25
IRYG | ≤ 0.25
RKTN | ≤ 0.25
IRQI | ≤ 0.25
FCQI | ≤ 0.25
TICR | 0.409
HFSM | ≤ 0.25
FWVW | ≤ 0.25
WKSM | ≤ 0.25
TYQP | ≤ 0.25
YTIY | ≤ 0.25
VFLH | ≤ 0.25
HDFR | ≤ 0.25
NFFY | ≤ 0.25
YKEA | ≤ 0.25
VAHD | ≤ 0.25
MGTQ | ≤ 0.25
VHQI | ≤ 0.25
ESML | ≤ 0.25
PGIN | ≤ 0.25

Variant | enrichment ratio
MMLR | ≤ 0.25
AYCF | ≤ 0.25
FYNG | ≤ 0.25
EDPC | ≤ 0.25
ILVY | ≤ 0.25
KLEE | ≤ 0.25
RHIS | ≤ 0.25
QQLR | ≤ 0.25
QPCA | ≤ 0.25
TLVR | ≤ 0.25
WEFE | ≤ 0.25
RMPD | ≤ 0.25
SMYR | ≤ 0.25
WKIH | ≤ 0.25
DTTP | ≤ 0.25
GNVY | 2.93
PMQR | ≤ 0.25
PATL | ≤ 0.25
AMAV | 5.5
HQHD | ≤ 0.25
RQFP | ≤ 0.25
QYHP | ≤ 0.25
HWFH | ≤ 0.25
MTGH | 2.68
RGLY | ≤ 0.25
AGGM | ≤ 0.25

Variant | enrichment ratio
TNHR | ≤ 0.25
VAHW | ≤ 0.25
HQHP | ≤ 0.25
DCQK | ≤ 0.25
YYRR | ≤ 0.25
SSFC | 0.48
RSGL | ≤ 0.25
ANCR | 11
MRNS | ≤ 0.25
IQIW | ≤ 0.25
RSIF | ≤ 0.25
NSGF | ≤ 0.25
GGAP | ≤ 0.25
KQRR | ≤ 0.25
NRTL | ≤ 0.25
DRFT | ≤ 0.25
HVLV | ≤ 0.25
FGTF | ≤ 0.25
WQRS | ≤ 0.25
LAQQ | ≤ 0.25
NAKI | ≤ 0.25
KIVA | ≤ 0.25
IQAI | ≤ 0.25
HIKS | ≤ 0.25
ESIQ | ≤ 0.25
IFAP | ≤ 0.25

Variant | enrichment ratio
DRTH | ≤ 0.25
GHNM | ≤ 0.25
HDCW | ≤ 0.25
AGIH | 16.3
YYLV | ≤ 0.25
RDRY | ≤ 0.25
VMQE | ≤ 0.25
DGHD | ≤ 0.25
NRIQ | ≤ 0.25
VSGT | ≤ 0.25
HLLQ | ≤ 0.25
DKQS | ≤ 0.25
WTHD | ≤ 0.25
FILD | ≤ 0.25
VQQN | ≤ 0.25
ACDR | ≤ 0.25
MWYP | ≤ 0.25
HPDF | ≤ 0.25
GHNY | ≤ 0.25
SEWD | ≤ 0.25
SFEF | ≤ 0.25
YNTP | ≤ 0.25
KNCI | ≤ 0.25
AWHL | ≤ 0.25
QTCE | ≤ 0.25
LHRC | ≤ 0.25

Variant | enrichment ratio
MNLT | 3.66
PIWE | ≤ 0.25
QTQH | ≤ 0.25
YREY | ≤ 0.25
NANS | ≤ 0.25
QGSN | 20.2
TGVI | 0.552
GTNW | ≤ 0.25
LSSR | ≤ 0.25
MCMP | ≤ 0.25
PPFH | ≤ 0.25
FPYA | ≤ 0.25
MQKR | ≤ 0.25
SEAD | 5.48
WIHG | ≤ 0.25
LIEV | ≤ 0.25
QKLS | ≤ 0.25
CVFP | ≤ 0.25
FCSY | ≤ 0.25
EPKY | ≤ 0.25
QGKW | ≤ 0.25
VTFH | ≤ 0.25
HYCS | ≤ 0.25
